# Results reported in publication PMC4336329 (PLoS ONE, 2015).
# In all, about 310,000 compounds went through this assay and about 2,200 (0.71%) showed an effect of 50% or more. The effect is printed as a negative number. This is one part of the list.
# Target: human ether-à-go-go-related gene (hERG) potassium channel (human, UniProt Q12809)
# Test: primary screen, population patch clamp on CHO cells stably expressing hERG
# human ether-à-go-go-related gene (hERG) potassium channel, sequence (Q12809 whole entry, looked up): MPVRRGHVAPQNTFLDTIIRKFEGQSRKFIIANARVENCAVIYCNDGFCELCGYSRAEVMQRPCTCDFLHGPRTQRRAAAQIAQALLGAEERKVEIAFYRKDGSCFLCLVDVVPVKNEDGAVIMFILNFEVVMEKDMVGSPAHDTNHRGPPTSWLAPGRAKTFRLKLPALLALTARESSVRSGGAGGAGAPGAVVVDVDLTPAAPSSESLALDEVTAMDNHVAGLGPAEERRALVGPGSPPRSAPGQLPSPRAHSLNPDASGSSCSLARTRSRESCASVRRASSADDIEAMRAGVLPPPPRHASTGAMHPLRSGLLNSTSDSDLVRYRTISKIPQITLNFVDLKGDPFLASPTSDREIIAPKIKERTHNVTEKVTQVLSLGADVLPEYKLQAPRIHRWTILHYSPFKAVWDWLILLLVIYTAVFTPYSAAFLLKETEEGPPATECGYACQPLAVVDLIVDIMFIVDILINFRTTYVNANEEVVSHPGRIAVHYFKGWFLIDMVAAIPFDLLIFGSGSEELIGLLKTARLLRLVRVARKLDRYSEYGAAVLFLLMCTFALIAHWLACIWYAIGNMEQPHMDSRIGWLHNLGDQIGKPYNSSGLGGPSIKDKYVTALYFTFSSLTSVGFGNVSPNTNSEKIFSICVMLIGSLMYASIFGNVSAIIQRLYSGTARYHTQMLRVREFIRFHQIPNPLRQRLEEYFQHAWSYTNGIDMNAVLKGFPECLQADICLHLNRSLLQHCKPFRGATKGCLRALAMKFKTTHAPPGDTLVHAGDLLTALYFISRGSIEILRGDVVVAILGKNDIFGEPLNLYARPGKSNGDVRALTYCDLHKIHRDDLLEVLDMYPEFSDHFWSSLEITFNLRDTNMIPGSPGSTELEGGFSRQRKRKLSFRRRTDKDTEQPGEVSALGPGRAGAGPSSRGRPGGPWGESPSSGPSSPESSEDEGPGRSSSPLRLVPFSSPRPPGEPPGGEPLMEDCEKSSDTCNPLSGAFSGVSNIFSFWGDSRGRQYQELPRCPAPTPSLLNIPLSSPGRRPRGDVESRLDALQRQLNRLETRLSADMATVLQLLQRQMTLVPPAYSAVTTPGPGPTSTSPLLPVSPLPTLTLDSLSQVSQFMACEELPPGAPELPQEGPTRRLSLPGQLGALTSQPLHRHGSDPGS
row,Compound,"hERG current change (%, negative = inhibition) at 1uM [%]"
1,CCS(=O)(=O)c1ccc(O)c(NC(=O)/C=C/c2ccccc2)c1,8.63
2,CC1=C(C)CC(C(=O)NCc2c(F)cccc2Cl)C(C(=O)O)C1 (stereo not drawn),16.3
3,S=c1[nH]nc(COc2ccccc2)n1/N=C/c1ccncc1,12.8
4,Cc1cc(C)cc(-n2nnc(C(=O)NCc3ccccc3)c2N)c1,5.79
5,COc1ccccc1NS(=O)(=O)c1cccc(C(=O)NC2CCN(Cc3ccccc3)CC2)c1,-17.1
6,[N-]=[N+]=CC(=O)OC[C@H](N)C(=O)O,11.6
7,CCN1CCN(Cc2ccc(NC(=O)c3cc(NC(=O)c4cc5cccc(OC)c5o4)cc(OC)c3)cc2C(F)(F)F)CC1,17.6
8,COc1ccc(/C=C2\N=C3CCCN3C2=O)cc1,7.43
9,COc1ccccc1C(=O)NCCCN1CCCC1=O,5.92
10,O=C(CN1CCC(O)(c2ccc3c(c2)OCO3)CC1)NC1CCCCC1,14.3
11,CCCNC(=O)C1CC(c2cccc(F)c2)=NO1 (stereo not drawn),2.85
12,CC1CCN(C(=S)Nc2ccc(F)cc2)CC1,9.94
13,Cc1cccc(-c2nc(CSc3nc4c(c(=O)[nH]3)CCC4)c(C)o2)c1,16.3
14,O=C(CCc1ccccc1)Nc1ccc(F)c([N+](=O)[O-])c1,14.5
15,CCOC(=O)C1=NOC2COC3(CCN(c4ncccn4)CC3)OCC12 (stereo not drawn),11.4
16,COc1ccccc1N(C)S(=O)(=O)c1ccc(C(=O)OCC(=O)N(C(C)C)C(C)C)cc1,-8.91
17,NS(=O)(=O)c1ccc(CCNC(=O)C(=O)C2C(=O)Nc3ccccc32)cc1 (stereo not drawn),4.9
18,CCn1c(-c2ccncc2)n[nH]c1=S,11.2
19,CC(C)(C)CC(=O)Nc1cccc(-c2cn3cccnc3n2)c1,-0.0164
20,CCOC(=O)c1sc2nc(SC)nc(-c3ccc(Cl)cc3)c2c1N,14.2
21,O=C(CSC1=NS(=O)(=O)c2ccccc2N1)Nc1nccs1,9.95
22,S=C(NC1CCCCC1)N1CCCCC1,14.8
23,CC(C)Nc1nnc(SC(C)C(=O)NCc2ccc3c(c2)OCO3)s1 (stereo not drawn),12.8

row,Compound,"hERG current change (%, negative = inhibition) at 1uM [%]"
1,COc1cccc(OCC(O)CN2CCN(c3ccccc3)CC2)c1 (stereo not drawn),-3.86
2,CCOC(=O)N1CCN(c2cc(=O)n(-c3cccc(C)c3)c(=O)[nH]2)CC1,4.66
3,COc1ccc(CN2CCN(C(=O)CCC(=O)Nc3nnc(C4CCCCC4)s3)CC2)cc1F,-1.35
4,OCCNc1nc(Cl)nc(NCc2ccco2)n1,8.41
5,O=C(Cn1cnc2ccccc2c1=O)Nc1nnc(SCc2ccc(Cl)cc2)s1,11.2
6,C=CCn1cccc(C(=O)Nc2ccc(N(C)C)cc2)c1=O,9.5
7,CN(c1ccccc1)S(=O)(=O)c1cccc(NC(=O)c2cc3ccccc3oc2=O)c1,7.27
8,Cc1ccc(-c2csc3nc4c5ccccc5c(NCCCN(C)C)nn4c(=O)c23)cc1,-47.9
9,CCCNC(=O)CN(c1ccc(F)cc1)S(=O)(=O)c1ccc2c(c1)OCCO2,9.39
10,O=C1CC(c2ccc3c(c2)OCO3)c2cc3c(cc2N1)OCO3 (stereo not drawn),1.34
11,Cc1cc(C(=O)N/N=C/c2cccnc2)cs1,15.2
12,COC(=O)c1ccc(C(NC(=O)OCc2ccccc2)/C(F)=C/[C@@H](C)C(=O)O)cc1 (stereo partly drawn),8.52
13,CC(=O)[C@@]1(O)C(C)CC2C3C=C(C)C4=Cc5c(cnn5-c5ccccc5)C[C@]4(C)C3C(O)C[C@@]21C (stereo partly drawn),10.3
14,COc1ccccc1Nc1nc2ccccc2[nH]1,-3.17
15,COC(=O)C(CCSC)NC(=O)c1cccc([N+](=O)[O-])c1 (stereo not drawn),-0.729
16,Cc1ccc(-n2cc3c(=O)n(C)c(=O)n(C)c3c2)cc1C,5.75
17,NNC(=O)c1cccc(Cn2cc(Br)c([N+](=O)[O-])n2)c1,7.76
18,O=[N+]([O-])c1ccccc1/C=N/OCc1ccccc1,22.3
19,CCOC(=O)C1(Cc2ccc(OC)cc2)CCN(C(=O)c2cccc3nccnc23)CC1,2.3
20,Cc1nc2ccc(NC(=O)Cc3cccs3)cc2s1,15.8
21,CC1CC(C)CN(CC(O)COCCOc2ccc(Br)cc2)C1.Cl (stereo not drawn),-32.3
22,COC(=O)c1sccc1-c1ccc(C(N)=O)o1,12.4
23,Cc1cc(NC(=O)c2ccc(-c3ccc(F)c(Cl)c3)o2)no1,3.14

row,Compound,"hERG current change (%, negative = inhibition) at 1uM [%]"
1,CC(C)(C)c1nnc(NC(=O)Cc2ccccc2[N+](=O)[O-])s1,-5.93
2,O=C(Cn1cnc2c(nnn2Cc2ccccc2)c1=O)c1ccccc1,-1.44
3,N#CCC(CNc1ncc(C(F)(F)F)cc1Cl)OC(=O)c1cccc([N+](=O)[O-])c1 (stereo not drawn),-21
4,O=C(CC1C(=O)NCCN1C(=O)Nc1ccc(F)cc1F)Nc1cc(Cl)ccc1Cl (stereo not drawn),2.43
5,CCOC(=O)N1CCN(C(=O)CN2C(=O)NC(C)(c3ccc4ccccc4c3)C2=O)CC1 (stereo not drawn),-0.366
6,Cc1cn(CCOc2ccc(Cl)cc2)c(=O)[nH]c1=O,12.6
7,O=C(O)c1c2c(nc3ccc(S(=O)(=O)N4CCC(C(=O)NCc5ccccc5Cl)CC4)cc13)CCCC2,8.46
8,COc1ccc(C(CC(=O)NCCN2CCOCC2)NS(=O)(=O)c2ccc(C)cc2)cc1 (stereo not drawn),11.7
9,CCOC(=O)N1CCN(C(=O)c2ccc3c(c2)NC(=O)/C(=C/c2ccccc2)S3)CC1,38.8
10,Cc1ccc(S(=O)(=O)N(Cc2ccccc2)Cc2ccco2)cc1,10.7
11,CCc1nn(C(CC)C(=O)NCc2cccc(OC)c2)c(=O)c2cc3occc3n12 (stereo not drawn),6.54
12,CCc1noc(C)c1C(=O)NCCc1ccc(Cl)cc1,14
13,N#Cc1ccccc1OCC(=O)Nc1ccc(N2CCOCC2)cc1N1CCOCC1,8.66
14,CCc1cc2c(-c3ccccc3)cc(=O)oc2cc1OCC(=O)NCC1CCC(C(=O)O)CC1 (stereo not drawn),14.6
15,Nc1nc2c(F)c(F)c(F)cc2s1,1.74
16,Cc1ccc(C)c(NC(=S)Nc2cccnc2)c1,7
17,CCCc1ccc(-c2cc(C(=O)N3CCN(c4ccccn4)CC3)c3ccccc3n2)cc1,13.3
18,CCCOc1ccccc1NC(=O)/C=C/C(N)=O,11.2
19,CC1CN=C(Nc2cccc3ccccc23)S1 (stereo not drawn),6.56
20,COCCNC(=O)CN(C(=O)Cn1nnc2ccccc21)c1ccc(C)cc1,25.2
21,Cl.O=C(CCc1ccccc1)N1CCN(CCO)CC1,9.43
22,CC1(C)c2cc(O)ccc2OC1N1CCOCC1 (stereo not drawn),8.74
23,O=C(CSc1nc2[nH]ncc2c(=O)[nH]1)Nc1nccs1,6.1

row,Compound,"hERG current change (%, negative = inhibition) at 1uM [%]"
1,COc1ccc(C(=O)N/N=C\c2coc3ccc(C)cc3c2=O)cc1,9.26
2,CCOC(=O)C1(CCOC)CCN(Cc2ccc(C(=O)OC)cc2)CC1,0.201
3,Fc1ccc2nc(Nc3nc4c(s3)CCCC4)sc2c1,5.91
4,Cc1ccccc1[C@@H](NC(=O)OC(C)(C)C)C(=O)OC(C)(C)C,8.98
5,O=C(NCc1ccco1)C1CCCCN1S(=O)(=O)c1ccc(F)cc1 (stereo not drawn),10.4
6,N#CC1=C(N)Oc2c(c(=O)sc3ccccc23)C1c1cccnc1 (stereo not drawn),10.4
7,O=C(COc1ccc2ccc(=O)oc2c1)NCCc1c[nH]c2ccc(F)cc12,12.5
8,CN1CCN(CCc2nc3cc(NC(=O)COc4ccccc4)ccc3n2C)CC1,-13.2
9,Cc1[nH]c(C)c(S(=O)(=O)N2CCN(c3ccccc3)CC2)c1C(=O)N1CCCCC1,-5.2
10,CC1CCN(C(=O)COC(=O)CSc2ccc(C(N)=O)cc2[N+](=O)[O-])CC1,10.2
11,COc1ccc(CCNS(=O)(=O)c2ccc(Br)cc2)cc1OC,10.5
12,COc1ccc(NC(=S)N(CCN2CCOCC2)Cc2ccccc2F)cc1,4.38
13,Cc1cccc(NC(=O)CNC(=O)c2ccco2)n1,7.79
14,Cc1cc(OCC(=O)N2CCOCC2)ccc1NC(=O)C1CCCCC1,10.4
15,COCCn1c(C)cc(C(=O)CN2CCCCC2)c1C.O=C(O)C(=O)O,19.3
16,Cc1cc(C)c(COCc2cc(/C=N/O)c(C)cc2C)cc1/C=N/O,5.04
17,Cc1ccc(-c2nc3ccsc3c(=O)[nH]2)cc1,18.1
18,c1csc(-c2nnc(NC3CCCCC3)c3ccccc23)c1,-40.8
19,CCC(=O)Nc1ccc(C(=O)NNC(=O)c2cccs2)cc1,-2.98
20,O=C(Nc1cccnc1)c1ccc([N+](=O)[O-])cc1Cl,3.79
21,CCOC(=O)Cn1c(=N)n(Cc2ccccc2F)c2ccccc21.Cl,4.5
